The text below walks through data of the supplement of paper PMC4723716.

In the assay the test system is Plasmodium falciparum NF54 stage V gametocytes. Briefly: viability index relative to DMSO control (fraction); higher = less gametocyte killing. The note with it: 2.5 µM, incubation time: 72 h. In outline: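 In 1,536-well plates, 10 µl of serum-free medium holding P. falciparum NF54 stage V gametocytes (0.75% gametocytemia, 1.25% hematocrit) received compound at 2.5 µM for 72 hr at 37°C in low oxygen. After one to two hours with 3 µl of 2.5 µM MitoTracker Red CMXRos containing 0.13% saponin, red particles of 20–70 µm2 were counted in a single field per well. Viability index is reported as the particle count over the plate mean of wells treated with solvent only.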

Where [1] appears, read: library set: Broad Institute DOS.

± gives the uncertainty stated by the source. Whole data set: some 9,900 compounds, median “viability index relative to DMSO control” near 1, cut for the lowest 2% near 0.85. The list shows a part of the results.

For the compound `O=C(c1cccc(F)c1)N1CC2(C1)[C@@H](c1ccccc1)[C@H](CO)N2Cc1ccccn1`, the viability index under setting [1] amounted to 1.07 ± 0.042.
On the same count and under the same terms, the result for `CC(=O)N1[C@@H](CO)[C@@H]2c3ccccc3N(S(=O)(=O)c3ccccc3C)C[C@@H]21` reads 1.02 ± 0.042.
The same measure, in the same setting: for `CCS(=O)(=O)N(C)C[C@@H]1N[C@H](CO)[C@@H]1c1ccc(C#CC(C)C)cc1` the value was 0.983 ± 0.075; for `O=C(C[C@@H]1CC[C@@H](NC(=O)CC2CC2)[C@@H](CO)O1)NCC(F)(F)F`, 1.02 ± 0.025; for `OC[C@@H]1[C@H](c2ccc(C3=CCCC3)cc2)[C@H]2CN(Cc3ccncc3)CCCCN12`, 1.05 ± 0.068.
Still for that read-out and setting: for `N#C[C@H]1[C@H](c2ccccc2C2=CCCCC2)[C@H](CO)N1S(=O)(=O)c1ccccc1` the value was 1.14 ± 0.019; for `O=C(NC1Cc2ccccc2C1)[C@@H]1[C@@H](CO)[C@@H]2Cn3c(cccc3=O)[C@@H]2N1C(=O)c1cnccn1`, 1.06 ± 0.096; for `COc1ccc2c3c([nH]c2c1)[C@@H](CO)N(C[C@]31CN(C1)C(=O)C1CCC1)C(=O)c1ccccn1`, 1.07 ± 0.14.
In the case of `CS(=O)(=O)N1CC(=O)N2[C@@H](CO)[C@@H](c3ccc(C#CCC4CCCC4)cc3)[C@@H]2C1`, under setting [1], the viability index worked out at 0.9829 ± 0.0019.
The same measure, in the same setting: for `C[C@@H]1CN([C@H](C)CO)C(=O)Cc2cc(NC(=O)CCN3CCOCC3)ccc2O[C@H]1CN(C)Cc1ccc(C(=O)O)cc1` the value was 1.07 ± 0.035.
Take `C[C@@H]1CN([C@@H](C)CO)C(=O)CCCn2cc(nn2)CO[C@H]1CN(C)C(=O)c1ccc(N2CCN(C)CC2)cc1`: the viability index under setting [1] stood at 1.04 ± 0.035.
Compound `C/C=C/c1ccc([C@@H]2[C@@H](CO)N3C(=O)CN(C(=O)Nc4cccc(OC)c4)C[C@@H]23)cc1` returned a viability index under setting [1] of 1.051 ± 0.008.
Still for that read-out and setting: for `COc1cccc(CNC(=O)C[C@H]2CC[C@@H]3[C@H](COc4ccc(NC(=O)c5cccs5)cc4C(=O)N3C)O2)c1` the value was 0.935 ± 0.15; for `COc1ccc(-c2ccccc2[C@H]2[C@@H](CO)N(C(=O)NC(C)C)[C@H]2C#N)cc1`, 1.13 ± 0.14; for `CN(C)C(=O)c1ccc(-c2ccc([C@@H]3[C@H]4CN(C(=O)CC5CC5)CC(=O)N4[C@H]3CO)cc2)cc1`, 1.08 ± 0.018.
On the same count and under the same terms, the result for `COc1ccc(C#Cc2ccc3c(c2)[C@H]2[C@H](CCN2C(=O)Nc2ccc(C(F)(F)F)cc2)[C@H](CO)N3C)cc1` reads 1.1 ± 0.068.
On the same count and under the same terms, the result for `N#C[C@H]1[C@H](c2ccc(C3=CCCC3)cc2)[C@@H](CO)N1C(=O)c1ccccn1` reads 1.06 ± 0.052; that for `CO[C@@H]1CC[C@H]2CCOc3c(C#N)cccc3C(=O)N(C)CC3(CCCCC3)CC(=O)N(C)C[C@H]1O2`, 0.974 ± 0.043; that for `CC[C@H]1C/C=C\C[C@@H](c2ccc(OC)cc2OC)NC(=O)[C@@H](C)CC(=O)N1`, 0.956 ± 0.047.
`CO[C@@H](CN(C)Cc1ccc2c(c1)OCO2)[C@H](C)CN(C(=O)c1ccccc1)[C@@H](C)CO` came in with a viability index under setting [1] of 1.02 ± 0.12.
Regarding `O=C(c1ccncc1)N1C[C@@H]2[C@H](c3ccccc31)[C@H](CO)N2Cc1ccccc1F`, under setting [1], the viability index was found to be 1.055 ± 0.0046.
Consider `C[C@H](CO)N1C[C@H](C)[C@@H](CN(C)C(=O)[C@H](Cc2ccccc2)N(C)C)OCc2ccccc2-c2ccccc2C1=O`, for which the viability index under setting [1] was determined as 1.05 ± 0.028.
Still for that read-out and setting: for `COC(=O)c1ccc(CN2CC(=O)N3[C@H](CO)[C@H](c4ccc(-c5cccnc5)cc4)[C@@H]3C2)cc1` the value was 1.05 ± 0.043; for `C[C@@H](NC(=O)C[C@H]1C=C[C@H](NS(=O)(=O)c2cccc(F)c2)[C@H](CO)O1)c1ccccc1`, 1.12 ± 0.098; for `CO[C@@H](CN(C)CC1CCOCC1)[C@@H](C)CN(C(=O)Nc1ccc(F)cc1)[C@@H](C)CO`, 1.03 ± 0.079.
`CC(=O)N1[C@@H](CO)[C@@H](c2ccc(-c3ccc(C#N)cc3)cc2)C12CN(C(=O)C1CC1)C2` yielded a viability index under setting [1] of 1.09 ± 0.02.
On the same count and under the same terms, for `COc1ccc2c3c([C@@H](CO)N(C[C@]33CCN(Cc4cncnc4)CC3)C(=O)CN(C)C)n(C)c2c1` the value was 0.999 ± 0.035; for `CN1C(=O)c2cc(NC(=O)Cc3cccs3)ccc2OC[C@H]2O[C@H](CC(=O)NCC3CCCCC3)CC[C@@H]21`, 1.16 ± 0.12.
Same read-out and setting: the result for `Cc1cccc(-c2ccc([C@@H]3[C@@H]4CNC[C@H]3N4)cc2)c1` reads 1.01 ± 0.069; that for `CO[C@@H]1CC[C@@H]2CCN(C)C(=O)[C@H](C)N(C)C(=O)c3cccc(C#N)c3OC[C@H]1O2`, 1.02 ± 0.014.
Under setting [1], `O=C(c1cnccn1)N1CC(=O)N2[C@H](CO)[C@H](c3ccc(C#CC4CC4)cc3)[C@@H]2C1` registered a viability index of 1.118 ± 0.01.
Still for that read-out and setting: for `CCS(=O)(=O)Nc1ccc2c(c1)C(=O)N(C)[C@@H]1CC[C@H](CC(=O)NCc3ccc(OC)cc3)O[C@@H]1CO2` the value was 1.02 ± 0.067.
Regarding `COc1ccc(C#Cc2ccc3c(c2)[C@H]2[C@H](CCN2S(=O)(=O)c2ccccc2C)[C@H](CO)N3C)cc1`, the viability index under setting [1] was determined as 1.04 ± 0.042.
As for `COc1ccc(CN(C)C[C@H]2Oc3ccc(NC(=O)Nc4ccc5c(c4)OCO5)cc3CC(=O)N([C@@H](C)CO)C[C@H]2C)cc1`, the viability index under setting [1] came out at 0.94 ± 0.052.
The same measure, in the same setting: for `C[C@@H]1CN([C@@H](C)CO)C(=O)c2c(c3ccccc3n2C)-c2ccccc2CO[C@H]1CN(C)Cc1cccc(C(F)(F)F)c1` the value was 0.932 ± 0.15; for `O=C(C[C@H]1C[C@H]2c3cc(NC(=O)Nc4ccccc4)ccc3O[C@H]2[C@@H](CO)O1)NCc1ccccc1`, 1.1 ± 0.059; for `O=C1CNC[C@H]2[C@@H](c3ccc(C#CC4CCCCC4)cc3)[C@@H](CO)N12`, 1.14 ± 0.039.
Regarding `CCC(=O)Nc1ccc2c(c1)OC[C@H](C)N(Cc1ccccc1)C[C@@H](C)[C@@H](OC)CN(C)C2=O`, under setting [1], the viability index worked out at 1.02 ± 0.029.
Turning to `CNC(=O)C[C@@H]1CC[C@H]2[C@H](COc3ccc(NS(=O)(=O)c4ccc(F)cc4)cc3C(=O)N2C)O1`, the viability index under setting [1] came to 1.02 ± 0.1.
The compound `COc1ccc2c3c([C@@H](CO)N(Cc4cc(F)ccc4F)C[C@]33CN(C3)C(=O)C3CC3)n(C)c2c1` came in with a viability index under setting [1] of 0.941 ± 0.05.
Still for that read-out and setting: for `CC(C)COC(=O)N(C)C[C@@H]1OCc2ccccc2-c2ccccc2C(=O)N([C@H](C)CO)C[C@H]1C` the value was 1.032 ± 0.0056.
On the same count and under the same terms, for `CN(C)C(=O)[C@H]1[C@H](CO)[C@H]2Cn3c(cccc3=O)[C@@H]1N2CC1CCOCC1` the value was 1.01 ± 0.058.
The same measure, in the same setting: the result for `COc1ccc2c3c([nH]c2c1)[C@H](CO)N(C[C@]31CN(Cc2ccccc2Cl)C1)C(C)=O` reads 0.979 ± 0.083; that for `CN(C)Cc1cn(CC[C@@H]2CC[C@@H](NC(=O)Cc3cccnc3)[C@H](CO)O2)nn1`, 0.937 ± 0.048.
`O=C(C[C@@H]1C=C[C@@H](NC(=O)Nc2ccc3c(c2)OCO3)[C@H](CO)O1)NCCCN1CCOCC1` yielded a viability index under setting [1] of 0.915 ± 0.059.
Still for that read-out and setting: the result for `C[C@@H]1CCCCO[C@H](CN(C)S(=O)(=O)c2ccc(Cl)cc2)[C@@H](C)CN([C@H](C)CO)C(=O)c2cc(NC(=O)Nc3ccc(C(F)(F)F)cc3)ccc2O1` reads 1.08 ± 0.17.
On the same count and under the same terms, for `CO[C@@H]1CN(C)C(=O)c2ccc(NC(=O)c3ccccc3F)cc2OC[C@H](C)N(C)C[C@@H]1C` the value was 1.11 ± 0.022.
On to `CO[C@H]1CN(C)C(=O)c2cc(NS(C)(=O)=O)ccc2OC[C@H](C)N(Cc2cncnc2)C[C@H]1C`, for which the viability index under setting [1] was found to be 1.08 ± 0.019.
Consider `Cc1noc(C)c1S(=O)(=O)N(C)C[C@@H]1OCc2ccccc2-c2c(n(C)c3ccccc23)C(=O)N([C@@H](C)CO)C[C@H]1C`, for which the viability index under setting [1] is 0.916 ± 0.084.
Still for that read-out and setting: for `O=S(=O)(NC[C@H]1[C@@H](c2ccccc2)[C@H](CO)N1CC1CC1)c1ccccc1` the value was 1.02 ± 0.019; for `COc1ccccc1-c1cn(CC[C@@H]2CC[C@@H](NC(=O)C3CCCCC3)[C@H](CO)O2)nn1`, 0.9323 ± 0.0013.
The compound `CCc1cnc(N2[C@H](C#N)[C@H](c3ccc(C#Cc4ccccc4F)cc3)[C@@H]2CO)s1` displayed a viability index under setting [1] of 1.034 ± 0.0053.
The same measure, in the same setting: the result for `C[C@@H]1CN([C@@H](C)CO)C(=O)CCCn2nncc2CO[C@@H]1CN(C)S(=O)(=O)c1ccc2c(c1)OCCCO2` reads 1.0105 ± 7.9e-05; that for `COc1ccccc1-c1cnc2c(c1)C(=O)N([C@@H](C)CO)C[C@H](C)[C@H](CN(C)C(=O)CC1CC1)O2`, 1.05 ± 0.028.
For `O=C(C[C@@H]1CC[C@H]2[C@@H](COC[C@H](O)CN2Cc2ccc(F)cc2)O1)NCCc1ccccc1`, the viability index under setting [1] was determined as 1.03 ± 0.033.
The same measure, in the same setting: the result for `CN(C)CC(=O)N1[C@H](C#N)[C@@H](c2ccc(C#CC3CCCCC3)cc2)[C@H]1CO` reads 1.05 ± 0.039.
The compound `O=C(C1CCCCC1)N1[C@H](CO)[C@@H](c2ccccc2)C12CN(Cc1cccc(Cl)c1)C2` registered a viability index (library set: Broad Institute Blood Stage) of 0.748 ± 0.048.
Regarding `COc1ccc(-c2ccc([C@@H]3[C@@H](CO)N4C(=O)CN(Cc5ccccc5)C[C@@H]34)cc2)cc1`, under setting [1], the viability index came to 1.02 ± 0.056.
As for `O=C(c1ccccc1F)N1CC(=O)N2[C@H](CO)[C@H](c3ccc(C#Cc4ccccc4)cc3)[C@@H]2C1`, the viability index under setting [1] came out at 1.07 ± 0.011.
`COCC(=O)Nc1ccc2c(c1)C(=O)N(C)C[C@@H](OC)[C@@H](C)CN(C(=O)c1ccncc1)[C@@H](C)CO2` showed a viability index under setting [1] of 1.14 ± 0.062.
Same read-out and setting: for `OC[C@@H]1[C@@H](c2ccc(C#Cc3ccccc3F)cc2)[C@H]2CN(CC3CCOCC3)CCCCN12` the value was 0.852 ± 0.021.
Still for that read-out and setting: the result for `COc1ccc2c3c([nH]c2c1)[C@@H](CO)N(C[C@]31CCN(CC2CCCC2)CC1)S(C)(=O)=O` reads 1.1 ± 0.015; that for `C[C@@H]1CN([C@@H](C)CO)C(=O)c2cc(NC(=O)Nc3ccc(C(F)(F)F)cc3)ccc2O[C@@H](C)CCCCO[C@@H]1CN(C)CC1CCCCC1`, 1.07 ± 0.11.
Same read-out and setting: the result for `CCS(=O)(=O)N1CC(=O)N2[C@H](CO)[C@@H](c3ccc(C#CC4CCCCC4)cc3)[C@H]2C1` reads 0.962 ± 0.014; that for `CNC(=O)C[C@@H]1CC[C@@H]2[C@H](COc3ccc(NC(=O)c4ccccc4F)cc3C(=O)N2C)O1`, 1.13 ± 0.045.
With `CCC(=O)N1CC(=O)N2[C@H](C1)[C@H](c1ccc(C#CCC(C)C)cc1)[C@@H]2CO`, the viability index under setting [1] was 1.02 ± 0.036.
Still for that read-out and setting: for `Cc1nn(C)cc1NC(=O)C[C@@H]1CC[C@@H]2[C@H](COc3ccc(NC(=O)C4CCOCC4)cc3C(=O)N2C)O1` the value was 1.05 ± 0.026; for `Cc1noc(C)c1S(=O)(=O)N(C)C[C@H]1OCc2cnnn2CCCC(=O)N([C@H](C)CO)C[C@H]1C`, 1.08 ± 0.013; for `C[C@@H]1CN([C@@H](C)CO)C(=O)Cc2cc(NS(=O)(=O)c3ccc(F)cc3)ccc2O[C@H]1CN(C)Cc1ccncc1`, 0.956 ± 0.014.
On the same count and under the same terms, for `C[C@@H]1CCCCO[C@@H](CN(C)S(=O)(=O)c2ccc(F)cc2)[C@@H](C)CN([C@H](C)CO)C(=O)c2cc(N(C)C)ccc2O1` the value was 1.042 ± 0.0022.
On the same count and under the same terms, the result for `CCc1nc(N2[C@@H](C#N)[C@H](c3ccccc3-c3ccc(F)cc3)[C@@H]2CO)sc1C` reads 0.924 ± 0.07.
